In the RNAGym collection of RNA variant scans (doi:10.7554/elife.90254):
The source gives no read counts; variants with many changes may rest on few reads.

B1: LINE1-full (parent)
chain: UACGUAGGUGGUUUUCCCCUGAUAGUGCUAAGGGGGCCUGGAAGUUUGGACUGGGCAGAGCUCAACACAGCGUGGCAAAGUGGCUGUGGCUAGACUGCCUCUCUGGAUUCCUCGUCACUCAGCAGGGCAUCUCUGAGAGAAAUGCC

Variants of: B1
Experiment: self-cleavage, relative activity (ratio to wild type); higher = more cleavage; in vitro, sequencing; the parent is a self-cleaving ribozyme
Work on UACGUCGGUGGUUUUCCCCUGAUAGUGCUAAGGGGGCCUGGAAGUUUGGACUGGGCGGAGCUCAACACAGCGUGGCAAGGUGGCUGUGGCUAGACUGCCUCUCUGGAUUCCUCGUCACUCAGCAGGGCAUCUCUGAGGGAAAUGCC yielded a self-cleavage of 0. Work on UACGUAGGUGGUUUUCCCCGGAUAGUGCAAAGGGGGCCUGGAAGUUUGGACUGGGCAGAGCUCAACACGGCGUGGCAAAGUGGCUGUGGCUAGACUGCCUCUCUGGAUUCCUCGUCACUCAGCAGGGCAUCCCUGAGAGAGACGCC yielded a self-cleavage of 1.02. With UACGUAGGUGGUUUUCCCCUGGUAGCGCUAAGGGGUCCUGGAAGUUUGGACUAGGCAGAGCUCAACACAGCGUGGCAAAGUGGCUGUGGCUAGACUCCCUCUCUGGAUCCCUCGUCACUCAGCAGGGCAUCUCUGAGGGAAAUGCC the self-cleavage was 0.03. In the case of UACGAAGGUGGUUCUCCCCUGAUAGUGCUAAGGGGGCCUGGAAGUUUGGACUGGGCAGAGCUCAACACAGCGUGGCAAAGUGGCUGUGGCUAGACUGCCUCUCUGGAUUCCUCGUCACUCAGCAGGGCUUCUCUGAGAGAAAUGCC, the self-cleavage is reported as 0.44. With UACGUAGGUGGUUUUCCCCUGAUAGUGCUAAGGGGGCCUGGAAGUUUGGACUGGGCAGAGCUCAGCACAGCGUGGCAAAGUGGCUGUGGCUAGACUGCCUCUCUGGAUUCCUCGUCACUUGGCAGGGCAUCUCUGAGAGAAAUGCC the self-cleavage was 0. UACGUAGGUGGUUUUCCCCUGAUAGUGCUAAGGGGGCCUGGAAGUUUGGUCUGGGCAGAGCUCAACACAGCGUGGCAAAGUGGCUGUGGCUAGACUGCCUCUCUGGAUUCCUCGACACUCAGCAGGGCAUCUCUGGGAGAAAUGCC gave a self-cleavage of 1.39. UACGUAGGUGGUUUUCCCCUGAUAGUGCUAAGGGGGCCUGGAAGUUUGGACUGGGCGGAGCUCAACACAGCGAGGCAAAGUGGCUGUGGCUAGACUGCCUCUCUGGAUUCCUCGCCACUCAGCAGGGCAUCCCUGAGAGAAAUGCC showed a self-cleavage of 0.72. UACGUAGGUGGUUUUCCCCUGAUAGUGCUAAGGGGGCCUGGAAGUUUGGACUGGGCAGAGCUCAACACAGCGUGGCAAAGUGGCUGUGGCCAGACUGCCUCUCCGGAUUCCUCGUCACUCAGCAGGGCAUCUCUGAGAGAAAUACC showed a self-cleavage of 0.9. Work on UACGUAGGUGGUUUACCCCUGAUAGUGCUAAGGGGGCCUGGAAGUUUGGACUGGGCAAAGCUCAACACAGCGUGGCAAAGUGGCUGAGGCUAGACUGCCUCUCUGGAUUCCUCGUCACUCAGCAGGGCAUCUCUGAGAGAAGUGCC yielded a self-cleavage of 0.04. Variant UACGUAGGUGGUUUUCCCCUGAUAGUGCUAAGGGGGCCUGGAAGUUUGGACUGGGCAGAGCUCAACACGGCGAGGCAAAGUGGCUGUGGCUAGACUGCCUCACUGGAUUCCUCGUCACUCAGCAGGGCAUCUCUGAGAGAACUGCC has a self-cleavage of 0.17. For UACGUAGGUGGUUUUCCCCUGAUAGUGCUAAGGGGACCUGGAAGUUUGGACUGGGCAGAGCUCAACACAGCGUGGCAAAGUGGCUGUGGCUAGACUGCCUCUCUGGAUUCCCCGUCACCCAGCAGGGCACCUCUGAGAGAAAUGCC, the self-cleavage was 1.57. UACGUAGGUGGUUUUCCCCUGAUAGUGCUAAGGGGGCCUGGAAGUUUGGACUGGGCAGAGCACAACACAGCGUGGCAAGGUGGCUGUGGCCAGACUACCUCUCUGGAUUCCUCGUCACUCAGCAGGGCAUCUCUGAGAGAAAUGCC gave a self-cleavage of 0.06. UACGUAGGUGGUUUUCCCCUGAUAGUGCUAAGGGGGCCUGGUAGUUUGGACUGGGCAGAGCUCAACACAGCGUGGCAAAGUGGCUGUGGCUAGACUGCCUCUCUGGAUUCCUCGUCACUCAGCUGGGCAUCCCUGAGAGAAAUGCC showed a self-cleavage of 1.11. For UACGUAGGUGGUUUUCCCCUGAUAGUGCUAAGGGGGCCUGGAAGUUUGGUCUGGGCAGAGCUCAACACAGCGUGGCAAGGUGGCUGUGGCUAGACUGCCUCUCUGGAUUCCUCGUCACUCAGCAGGGCACCUCUGAGAGAAAUGCC, the self-cleavage was 0.89. In the case of UACGAAGGUGGUUUUCCCCUGAUAGUGCUAAGGGGGCCUGGAAGUUUGGACUGGGCAGAGCUCAGCACAGCGUGGCAAAGUGGCUGUGGCUAGGCUGCCUCUCUGGAUUCCUCGUCACUCAGCAGGGCAUCUCUGAGAGAAAUGCC, the self-cleavage is reported as 0. In the case of UACGUAGGUGGUUUUCCCCUGAUAGUGCUAAGGGAGCCUGGAAGUUUGGACUGGGUAGAGCUCAACACAGCGUGGCAAAGUGGCUGGGGCUAGACAGCCUCUCUGGAUUCCUCGUCACUCAGCAGGGCAUCGCUGAGAGGAAUGCC, the self-cleavage is reported as 0.02. Work on UACGUAUGUGGUUUUCCCCUGAUAGUGCUAAGGGAGCCUGGAAGUUUGGACUGGGCAGAGCUCAACACAGCGUGGCAAAGUGGCUGUGGCUAGACUGCCUCUCUGGAUUCCUCGUCACUCAGCAGGGCAUCUCUGAGAGAAAAGCC yielded a self-cleavage of 1.1. Variant UACGUAGGUGGUCUUCCCCUGAUAGUGCUAAGGGGGCCUGGAAGUUUGGACUGGGCAGAGCUCAACACAGCGUGGCAAAGUGGCUGUGGCUAGACUGCCUCUCUGGAUUCCUCGUCACUCAGCAGGGCAUCUCCAAGAGAAAUGCC has a self-cleavage of 1.12. With UACGUAGGUGGUUUUCCCCUGAUAGUGCUAAGGGGGCCUGGAAAUUUGGACUGGGCAGAGCUCAACACAGCGCGGCAAAGUGGCUGUGGCUAGACUGCCCCUCUGGAUUCCUCGUCACUCAGCAGGGCAUCUCUGAGAGAAAUGCC the self-cleavage was 1.84. Work on UACGUAGGUGGUUUUCCCCUGAUAGUGCUAAGGGGGCCUGGAAGUUUGGACUGGGCAGAGCCCAACACAGCGUGGCAAAGUGGCUGUGGCUAGACUGCCACACUGGAUUCCUCGUCACUCAGCAGGGCAUCUCUGAGAGAAAUGCC yielded a self-cleavage of 0.03. UACGUAGGUGGUUUUCCCCUGAUGGUGCUAAGGGGGCCUGGAAGUUUGGACUGGGCAGAGCUCAACACAGCGUGGCAAAGUGGCUGUGGCUAGACUGCCCCUCUGGAUUCCCCGUCACUCAGCAGGGCAUCUCUGAGAGAAAUGCC gave a self-cleavage of 1.48. UACGUAGGUGGUUUUCCCCUGAUAGUGCUAAGGGGGCCUGGAAGUUUGGACUGGGCAGAGUUCAACACAGCGUGGCAAAGUGGCUGUGGCUAGGCAGCCUCUCUGGAUUCCUCGUCACUCAGCAGGGCAUCUCAGGGAGAAAUGCC gave a self-cleavage of 0.01. With UACGUAGGUGGUUUUCCCCUGAUAGUGCUAAUGGGGCCUGGAAGUUUGGACUGGGCGGAGCUCAACACAGCGUGGCAGAGUGGCUGUGGCUAGACUGCCUCUCUGGAUUCCUCGUCACUCAGCAGGGCAUCUCUGAGAGAAAUGCC the self-cleavage was 0.25. UACGUAGGUGGUUUUCCCCUGAUAGUGCUAAGGGGGACUGGAAGUUUGGUCUGGGCAGAGCUCAACACAGCGUGGCAAAGUGGCUGUGGCUAGACUGCCUCUCUGGAUUCCUCGUCACUCAGCUGGGCAUCUCUGAGAGAAAUGCC showed a self-cleavage of 0.63. UACGUAGGUGGUUAUCCCCUGAUAGUGCUAAGGGGGCCUGGAAGUUUGGACUGGGCAGAGCCCAACACAGCGUGGCAAAGUGGCUGUGGCUAGACUGCCUCUCUGGUUUCCUCGUCGCUCAGCAGUGCAUCUCUGAGAGAAAUGCC gave a self-cleavage of 0.08. In the case of UACGUAGGUGGUUUUCCCCUGAUAGUGCUAACGGGGCCUGGAAGUUUGGACUGGGCAGAGUUCAACACAGCGUGGCAAAGUGGCUGUGGCUAGACUGCCUCUCUGGAUUCCUCGUCACUCAGCAGGGCAUCUCAGAGAGAAAUGCC, the self-cleavage is reported as 0. Work on UACGUAGGUGGUUCUCCCCUGAUAGUGCUAAGGGGGCCUGGAAGUUUGGACUGGGCAGAGCUCGACACAGCGCGGCAAAGUGGCUGUGGCUAGACUGCCUCUCUGGAUUCCUCGUCACUCAGCAGGGCAUCUCUGAGAGAAAUGCC yielded a self-cleavage of 0.44. UACGUAGGUGGUUUUCCCCUGAUAGUGCUAAGGGGGCCUGGAAGUUUGGACUGGGCAGAGCUCAACACAGCGUGGCAAAGUGGCUGUGGCUAGACUGCCCCUCUGGAUUCCUCGUCACACAGCAGGGCAUCUCUGAGAGAAGUGCC showed a self-cleavage of 2.18. UACGUAGGUGGUUUUCCCCUGGUAGUGCUAAGGGGGCCUGGGAGUCUGGACUGGGCAGAGCUCAACACAGCGUGGCAAAGUGGCUGUGGCUAGACUGCCUCUCUGGAUUCCUCGUCACUCAGCAGGGCAUCUCUGAGAGAAAUGCC showed a self-cleavage of 0.46. UACGUAGGUGGUUUUCCCCCGAUAGUGCUAAGGGGGCCUGGAAGUUUGGACUGGGCAGAGCUCUACACAGCGUGGCAAAGUGGCUGUGGCUUGACUGCCUCUCUGGAUUCCUCGUCACUCAGCAGGGCAUCUCUGAGAGAAAUGCC gave a self-cleavage of 0.31. UACGUAGGUGGUCUUCCCCUGAUAGUGCUAAGGGGGCCUGGAAGUUUGGACCGGGCAGAGCUCAACACAGCGUGGCAAAGUGGCAGUGGCUAGACUGCCUCUCUGGAUUCCUCGUCACUCAGCAGGGCAUCUCUGAGAGAAAUGCC gave a self-cleavage of 0.05. Work on CACGUAGGUGGUUUUCCCCUGAUAGUGCUAAGGGGGCCUGGAAGUUUGGACUGGGCAGAGCUCAACACAGCGUGGCAAAGUGGCUGUGGCUAGACUGCCUCUCUGGAUUCCUCGUCACCCAGCAGGGCAUCCCUGAGGGAAAAGCC yielded a self-cleavage of 0.45. In the case of UACGUAGGUGGUUUCCCCCAGAUAGUGCUAAGGGGGCCUGGAAGUUUGGACUGGGCAGAGUUCAACACAGCGUGGCAAAGUGGCUGUGGCUAGACUGCCUCUCUGGAUUCCUCGUCACUCAGCAGGGCAUCUCUGAUAGAAAUGCC, the self-cleavage is reported as 0.07. Variant UACGAAGGUGGUUUUCCCCUGAUAGUGCUAAGGGGGCCUGGAAGUUUGGACUGGGCUGAGCUCAACACUGCGUGGCAAAGUGGCUGUGGCUAGACUGCCUCUCUGGAUUCCUCGUCACUCAGCAGGGCAUCUCAGAGAGAAAUGCC has a self-cleavage of 0. Variant UACGUAGGUGGUUUUCCCCGGAUAGUGCUAAGGGGGCCUGGAAGUUUGGACUGGGCAGAGCUCAACACAGCGUGGCAAAGUGGCUGUGGCCAGACUGCCUCUCUGGAUUCCUCGUCACUCAGCAGGGCAUCUCUGGGAGAAACGCC has a self-cleavage of 0.57. UACGUAGGUGGUUUUCCCCUGAUAGUGCUAAGGGGGCCUGGAAGUUUGGACUGGGCAGAGCUCAACACAGUGUGGCAAAGUGGCUGUGGCUAGACUGCCUCUCUGGAUUCCUCGUCACUCAGCAGGGCAUCUCUGAGGGAAGUGCC gave a self-cleavage of 0.96. Variant UACGUAGGUGGUUUACCCCUGAUAGUGCUAAGGGGGCCUGGAAGUUUGGACUGGGCAGAGCUCAACACAGCGCGGCAAAGUGGCUGUGGCUAGACUGCCUCUCUGGAUUCCUCGUCACUCAGCAGGGCAUCUCUGAUAGAAAUGCC has a self-cleavage of 0.6. UACGUAGGUGGUUCUCCCCUGAUAGUGCUAAGGGGGCCUGGAAGCUUGGACUGGGCAGAGCUCAACACAGCGUGGCAAAGUGGCUGUGGCUAGACUGCCUCUCAGGAUUCCUCGUCACUCAGCAGGGCAUCACUGAGAGAGAUGCC gave a self-cleavage of 0.92. UACGUAGGUGGUUUCCCCCUGAUAGUGCUAAGGGGGCCUGGAAGUUCGGACUGGGCAGAGCUCAACACAGGGUGGCAAAGUGGCUGUGGCUAGACUGCCUCUCUGGAUUCCUCGUCACUCAGCAGGGCAUCUCCGAGAGAAAUGCC gave a self-cleavage of 0.77.
